Reference: the supplement of paper PMC10670038
Counter-ions that a name gives are not always drawn. ± gives the standard deviation of the averaged measurements. In all, about 2,000 compounds were measured (“relative cell viability vs DMSO, compound + 0.2 uM CuET”: median about 1, lowest 2% from about 0.25 on). This is one part of the list.

test system: TE10; assay: relative cell viability vs DMSO, compound + 0.2 uM CuET (fraction); TE10 is an esophageal squamous carcinoma line; higher = less cytotoxic; settings: 2 µM; co-treatment: CuET (bis(diethyldithiocarbamate)copper) 0.2 uM; 48 h
Protocol: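 TE10 ESCC cells (1,000/well, 384-well plates) were treated with Selleck bioactive library compounds at 2 uM combined with 0.2 uM CuET (copper diethyldithiocarbamate) for 48 h. Viability was read by CellTiter-Glo and expressed relative to DMSO wells. Two technical replicates (A, B).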

| Compound | relative cell viability |
| --- | --- |
| CNCCc1ccccn1 [Betahistine 2HCl] | 1.03 ± 0.081 |
| c1ccc2c(CCNc3ccc(Nc4ccncc4)cc3)c[nH]c2c1 | 0.999 ± 0.084 |
| CC(C)CCNC(=O)[C@H](CC(C)C)NC(=O)[C@H]1O[C@@H]1C(=O)O [Loxistatin Acid (E-64C)] | 1.15 ± 0.11 |
| NCCCCCC(=O)O [(6-)ε-Aminocaproic acid] | 1.03 ± 0.033 |
| COc1c(C)cnc(Cn2cnc3c(Cl)nc(N)nc32)c1C | 0.762 ± 0.11 |
| COc1ccc2c(Oc3ccc(NC(=O)c4c(C)n(CC(C)(C)O)n(-c5ccccc5)c4=O)nc3)ccnc2c1 | 1.02 ± 0.15 |
| CCCNC(=O)NS(=O)(=O)c1ccc(Cl)cc1 [Chlorpropamide] | 1.17 ± 0.016 |
| COc1ccc(Cl)c(Nc2nc3ccccc3nc2NS(=O)(=O)c2cccc(NC(=O)C(C)(C)N)c2)c1 [Pilaralisib (XL147)] | 1.01 ± 0.097 |
| COc1cc(-c2ncn(/C=C\C(=O)OC(C)C)n2)cc(C(F)(F)F)c1 | 0.25 ± 0.0078 |
| COc1ccc(-c2nc(N3CCOCC3)c3sc(CN(C)c4ncc(C(=O)NO)cn4)cc3n2)cn1 | 0.1569 ± 0.00068 |
| O=C(Cc1ccccc1)Nc1nnc(CCSCCc2nnc(NC(=O)Cc3ccccc3)s2)s1 | 0.713 ± 0.053 |
| Cc1cnc(Nc2ccc(OCCN3CCCC3)cc2)nc1Nc1cccc(S(=O)(=O)NC(C)(C)C)c1 | 0.854 ± 0.19 |
| CO[C@H]1/C=C/O[C@@]2(C)Oc3c(C)c(O)c4c(O)c(c5c(nc6cc(C)ccn65)c4c3C2=O)NC(=O)/C(C)=C\C=C\[C@H](C)[C@H](O)[C@@H](C)[C@@H](O)[C@@H](C)[C@H](OC(C)=O)[C@@H]1C [Rifaximin] | 0.997 ± 0.15 |
| C[C@]12C=CC(=O)N[C@@H]1CC[C@@H]1[C@@H]2CC[C@]2(C)[C@@H](C(=O)Nc3cc(C(F)(F)F)ccc3C(F)(F)F)CC[C@@H]12 [Dutasteride] | 0.848 ± 0.029 |
| CN(C)S(=O)(=O)c1ccc2c(c1)/C(=C/c1cc3c([nH]1)CCCC3)C(=O)N2 | 0.891 ± 0.022 |
| Clc1cccc(Cl)c1NC1=NCCN1 [Clonidine HCl] | 1.05 ± 0.0021 |
| Nc1ccccc1NC(=O)c1cnccn1 | 1.16 ± 0.018 |
| CC(C)c1ccccc1Cc1cc(C(=O)Nc2ccc(S(=O)(=O)c3ccccc3C(C)(C)C)cc2)c(O)c(O)c1O | 0.801 ± 0.026 |
| O=C(O)CCc1ccc(NCc2cccc(Oc3ccccc3)c2)cc1 | 0.995 ± 0.041 |
| Clc1ccc2c(c1)CCc1cccnc1C2=C1CCNCC1 [Desloratadine] | 1.26 ± 0.38 |
| O=C1NCC2(CCN(CCc3ccccc3)CC2)O1 [Fenspiride HCl] | 0.875 ± 0.087 |
| CCS(=O)(=O)N1CC(CC#N)(n2cc(-c3ncnc4[nH]ccc34)cn2)C1 | 1.2 ± 0.077 |
| Nc1nccc(Oc2ccc(NC(=O)c3c[nH]cc(-c4ccc(F)cc4)c3=O)cc2F)c1Cl | 0.947 ± 0.031 |
| C[C@H]1CO[C@@H]2Cn3cc(C(=O)NCc4ccc(F)cc4F)c(=O)c(O)c3C(=O)N12 | 1.04 ± 0.11 |
| C[C@H]1[C@H](C)CC[C@]2(C(=O)O)CC[C@]3(C)C(=CC[C@@H]4[C@@]5(C)CC[C@H](O)C(C)(C)[C@@H]5CC[C@]43C)[C@H]12 [Ursolic Acid] | 0.984 ± 0.1 |
| NC(=O)Nc1cc(-c2cccc(F)c2)sc1C(=O)N[C@H]1CCCNC1 | 0.55 ± 0.021 |
